Experimental data published in paper PMC11995724, “Antibiotic target discovery by integrated phenotypic and activity-based profiling of electrophilic fragments” (Cell chemical biology, 2025).
Out of some 3,200 compounds screened, about 110 (3.4%) showed an effect of 50% or more. The list shows a part of the results.

What follows are molecules tested on T1, V. cholerae SAD30. Conditions: relative growth, OD600, LB; 25 µM; inhibitor.
T1 construct: SAD30
Design: species or system S. aureus MSSA476 (TSB) or V. cholerae SAD30 (LB); 384-well bacterial growth screen at 25 uM, OD600 relative to DMSO control
With `C=CC(=O)NC(C)c1nnc(-c2ccccc2F)s1` (centres unmarked) [3-N13, N-{1-[5-(2-fluorophenyl)-1,3,4-thiadiazol-2-yl]ethyl}prop-2-enamide] the “% of control remaining” value was 95.6185%. `Cc1coc(C)c1C(=O)CCl` [10-M11, 2-chloro-1-(2,4-dimethylfuran-3-yl)ethan-1-one] was tested, and the “% of control remaining” value was 109.41%. In the case of `C=CC(=O)N1CCC(C(=O)N2CCC(C(C)(C)O)CC2)CC1` [2-H14, 1-{4-[4-(2-hydroxypropan-2-yl)piperidine-1-carbonyl]piperidin-1-yl}prop-2-en-1-one], the “% of control remaining” value is reported as 91.1223%. `COc1ccc(-n2c(C)c(C)c(C#N)c2NC(=O)CCl)cc1` [4-F20, 2-chloro-N-[3-cyano-1-(4-methoxyphenyl)-4,5-dimethyl-1H-pyrrol-2-yl]acetamide] was tested, and the “% of control remaining” value was 105.413%. For `O=C(Nc1cc(F)ccc1F)N1CCSSCC1` [10-H11, N-(2,5-difluorophenyl)-1,2,5-dithiazepane-5-carboxamide], the “% of control remaining” value was 95.3828%. In the case of `Cc1ncsc1C=C(C#N)C(=O)NCCc1ccccc1` [9-H06, 2-cyano-3-(4-methyl-1,3-thiazol-5-yl)-N-(2-phenylethyl)prop-2-enamide], the “% of control remaining” value is reported as 84.6363%. For `C=CC(=O)N(Cc1c(C)cccc1OC)C1CCCCNC1=O` (centres unmarked) [1-F09, N-[(2-methoxy-6-methylphenyl)methyl]-N-(2-oxoazepan-3-yl)prop-2-enamide], the “% of control remaining” value was 86.9955%. With `Cc1ncc(CNC(=O)C(C)Cl)n1C` (centres unmarked) [5-J15, 2-chloro-N-[(1,2-dimethyl-1H-imidazol-5-yl)methyl]propanamide] the “% of control remaining” value was 98.3503%. `C=CC(=O)N1CCC(C(=O)NCc2c[nH]cn2)CC1` [2-G10, N-[(1H-imidazol-4-yl)methyl]-1-(prop-2-enoyl)piperidine-4-carboxamide] was tested, and the “% of control remaining” value was 89.4239%. `N#CC(=Cc1ccc(C#N)cc1)C(=O)Nc1ccccc1Cl` [9-O17, N-(2-chlorophenyl)-2-cyano-3-(4-cyanophenyl)prop-2-enamide] was tested, and the “% of control remaining” value was 91.4344%. `C=CC(=O)NCc1ccccc1N1CCCC(C(N)=O)C1` (centres unmarked) [3-L21, 1-{2-[(prop-2-enamido)methyl]phenyl}piperidine-3-carboxamide] was tested, and the “% of control remaining” value was 97.7357%. `CC(Cl)C(=O)NCc1cc(C(F)(F)F)cs1` (centres unmarked) [7-J19, 2-chloro-N-{[4-(trifluoromethyl)thiophen-2-yl]methyl}propanamide] was tested, and the “% of control remaining” value was 76.9205%. For `CC(Cl)C(=O)NCc1nnc(C2CCC2)n1C` (centres unmarked) [7-A10, 2-chloro-N-[(5-cyclobutyl-4-methyl-4H-1,2,4-triazol-3-yl)methyl]propanamide], the “% of control remaining” value was 85.6435%. For `N#Cc1ccc2c(c1)CCN2C(=O)CCl` [5-N09, 1-(2-chloroacetyl)-2,3-dihydro-1H-indole-5-carbonitrile], the “% of control remaining” value was 93.4748%. For `C=CC(=O)Nc1ccc(C(=O)C(F)F)cc1` [1-M20, N-[4-(2,2-difluoroacetyl)phenyl]prop-2-enamide], the “% of control remaining” value was 89.6861%. `C=CC(=O)NC(CO)c1ccnn1C` (centres unmarked) [2-D17, N-[2-hydroxy-1-(1-methyl-1H-pyrazol-5-yl)ethyl]prop-2-enamide] was tested, and the “% of control remaining” value was 92.203%. In the case of `C=CC(=O)N1CCC(C(=O)Nc2nnc(CC)s2)CC1` [2-M10, N-(5-ethyl-1,3,4-thiadiazol-2-yl)-1-(prop-2-enoyl)piperidine-4-carboxamide], the “% of control remaining” value is reported as 86.6448%. `O=C(CCl)Cc1c(F)cccc1F` [10-O15, 1-chloro-3-(2,6-difluorophenyl)propan-2-one] was tested, and the “% of control remaining” value was 99.7467%. In the case of `C=CC(=O)N1CCCC(O)(CC(N)=O)C1` (centres unmarked) [3-K14, 2-[3-hydroxy-1-(prop-2-enoyl)piperidin-3-yl]acetamide], the “% of control remaining” value is reported as 89.796%. `O=S(=O)(c1cc(Cl)cc(Cl)c1)N1CCSSCC1` [10-J09, 5-(3,5-dichlorobenzenesulfonyl)-1,2,5-dithiazepane] was tested, and the “% of control remaining” value was 99.1233%. In the case of `N#CC(=Cc1c[nH]c2ccccc12)C(=O)Nc1ccc2c(c1)OCCO2` [9-B07, 2-cyano-N-(2,3-dihydro-1,4-benzodioxin-6-yl)-3-(1H-indol-3-yl)prop-2-enamide], the “% of control remaining” value is reported as 51.0537%. In the case of `C=CC(=O)NCC(=C)c1ccccc1` [2-B09, N-(2-phenylprop-2-en-1-yl)prop-2-enamide], the “% of control remaining” value is reported as 87.2624%. With `C=CC(=O)N1CCOCC2(CCOCC2)C1` [2-C10, 1-{3,8-dioxa-11-azaspiro[5.6]dodecan-11-yl}prop-2-en-1-one] the “% of control remaining” value was 90.1959%. With `COc1cc(Cl)c(C)cc1NC(=O)C(C#N)=Cc1c(C)n[nH]c1C` [8-K10, N-(4-chloro-2-methoxy-5-methylphenyl)-2-cyano-3-(3,5-dimethyl-1H-pyrazol-4-yl)prop-2-enamide] the “% of control remaining” value was 70.0884%. `CC(Cl)C(=O)NC1Cc2ccccc2N(C(=O)C(F)(F)F)C1` (centres unmarked) [7-N19, 2-chloro-N-[1-(2,2,2-trifluoroacetyl)-1,2,3,4-tetrahydroquinolin-3-yl]propanamide] was tested, and the “% of control remaining” value was 97.0097%. With `C=CC(=O)NCC1(n2ccnn2)CC1` [2-L19, N-{[1-(1H-1,2,3-triazol-1-yl)cyclopropyl]methyl}prop-2-enamide] the “% of control remaining” value was 92.3574%. In the case of `CC(Cl)C(=O)N(C)C1CCCc2c1cnn2C` (centres unmarked) [6-L16, 2-chloro-N-methyl-N-(1-methyl-4,5,6,7-tetrahydro-1H-indazol-4-yl)propanamide], the “% of control remaining” value is reported as 89.3355%. `C=CC(=O)Nc1ccnc(OC)c1` [2-F21, N-(2-methoxypyridin-4-yl)prop-2-enamide] was tested, and the “% of control remaining” value was 104.709%. For `CCNC(=O)C(C#N)=Cc1ccc(O)c(OCC)c1` [8-O09, 2-cyano-3-(3-ethoxy-4-hydroxyphenyl)-N-ethylprop-2-enamide], the “% of control remaining” value was 72.9436%. In the case of `O=C(CCl)c1ccccn1` [10-J03, 2-chloro-1-(pyridin-2-yl)ethan-1-one], the “% of control remaining” value is reported as 0%. `C=CC(=O)NC(C)c1nnnn1-c1ccccc1` (centres unmarked) [2-I11, N-[1-(1-phenyl-1H-1,2,3,4-tetrazol-5-yl)ethyl]prop-2-enamide] was tested, and the “% of control remaining” value was 77.0723%. For `N#CC(=Cc1cccs1)C(=O)Nc1ccc(F)cc1` [8-F10, 2-cyano-N-(4-fluorophenyl)-3-(thiophen-2-yl)prop-2-enamide], the “% of control remaining” value was 70.4963%. With `Cc1ccc(NC(=O)N2CCN(C(=O)C(C)Cl)CC2)cc1Cl` (centres unmarked) [7-A21, N-(3-chloro-4-methylphenyl)-4-(2-chloropropanoyl)piperazine-1-carboxamide] the “% of control remaining” value was 80.0925%. `N#CC(=Cc1ccc2c(c1)OCO2)C(=O)NCc1ccco1` [9-A15, 3-(1,3-dioxaindan-5-yl)-2-cyano-N-[(furan-2-yl)methyl]prop-2-enamide] was tested, and the “% of control remaining” value was 87.2196%. With `C=CC(=O)NCc1ccccc1CN1C(=O)NC2(CCCCC2)C1=O` [2-O11, N-{[2-({2,4-dioxo-1,3-diazaspiro[4.5]decan-3-yl}methyl)phenyl]methyl}prop-2-enamide] the “% of control remaining” value was 88.0344%. With `O=C(CCl)NCCc1ccc2c(c1)OCCO2` [4-N11, 2-chloro-N-[2-(2,3-dihydro-1,4-benzodioxin-6-yl)ethyl]acetamide] the “% of control remaining” value was 104.033%. In the case of `CC(Cl)C(=O)NC(Cn1cncn1)c1ccccc1` (centres unmarked) [7-M09, 2-chloro-N-[1-phenyl-2-(1H-1,2,4-triazol-1-yl)ethyl]propanamide], the “% of control remaining” value is reported as 80.7533%. For `Cc1ccc(NC(=O)C(C#N)=Cc2cccs2)c(C)c1` [8-D15, 2-cyano-N-(2,4-dimethylphenyl)-3-(thiophen-2-yl)prop-2-enamide], the “% of control remaining” value was 71.312%. In the case of `C=CC(=O)NC(C)c1cnc(C(F)(F)F)s1` (centres unmarked) [2-A05, N-{1-[2-(trifluoromethyl)-1,3-thiazol-5-yl]ethyl}prop-2-enamide], the “% of control remaining” value is reported as 96.9893%. `C=CC(=O)Nc1ccnn1Cc1cccc(Cl)c1` [1-N14, N-{1-[(3-chlorophenyl)methyl]-1H-pyrazol-5-yl}prop-2-enamide] was tested, and the “% of control remaining” value was 86.3592%. `O=C(CCl)NCC12CCCCC1C2(F)F` (centres unmarked) [5-C18, 2-chloro-N-({7,7-difluorobicyclo[4.1.0]heptan-1-yl}methyl)acetamide] was tested, and the “% of control remaining” value was 99.359%. With `CC(Cl)C(=O)N1CCCC1c1cccc2c1OCCO2` (centres unmarked) [7-L11, 2-chloro-1-[2-(2,3-dihydro-1,4-benzodioxin-5-yl)pyrrolidin-1-yl]propan-1-one] the “% of control remaining” value was 76.7884%. For `CC1CN(Cc2ccccc2)CC(C)N(C(=O)C(C)Cl)C1` (centres unmarked) [5-B21, 1-(4-benzyl-2,6-dimethyl-1,4-diazepan-1-yl)-2-chloropropan-1-one], the “% of control remaining” value was 71.7873%. For `O=C(CCl)c1cc(Cl)ccc1Cl` [10-E16, 2-chloro-1-(2,5-dichlorophenyl)ethan-1-one], the “% of control remaining” value was 49.5617%. `CC(Cl)C(=O)N[C@H](C)c1cnnn1C` (stereo partly drawn) [6-D13, 2-chloro-N-[(1R)-1-(1-methyl-1H-1,2,3-triazol-5-yl)ethyl]propanamide] was tested, and the “% of control remaining” value was 90.0938%. For `CC(Cl)C(=O)NC(Cc1ccccc1)c1ncco1` (centres unmarked) [7-E12, 2-chloro-N-[1-(1,3-oxazol-2-yl)-2-phenylethyl]propanamide], the “% of control remaining” value was 75.2024%. For `CC(C)N(Cc1ccc(N(C)C)cc1)C(=O)CCl` [5-E06, 2-chloro-N-{[4-(dimethylamino)phenyl]methyl}-N-(propan-2-yl)acetamide], the “% of control remaining” value was 100.2%.
